Measured values as given in PubChem BioAssay AID1159614 (National Center for Advancing Translational Sciences (NCATS), 2016).
About 65 (0.1%) of roughly 45,000 compounds were called active. Calls follow the shape of the dose curve; as a rule, active = well fitted activation curve with a large enough effect; inconclusive = small, poorly fitted or top-dose-only effect; inactive = no such curve, though single readings can be large or run the other way. The list shows a part of the results.

target: Galactocerebrosidase (Homo sapiens) (UniProt P54803); assay: A Novel Cell-Based Assay to Identify Small Molecules for B -Galactocerebrosidase; conditions: 145M-Twi-hGALC-G270D cells, HMU-beta-Gal fluorescence, 48 h; series mostly up to 57.5 µM; activation: at the top concentration; also: 0% is about no effect; nearly all actives have a fitted effect of over 65% in size
UniProt P54803, sequence (P54803 whole entry, looked up): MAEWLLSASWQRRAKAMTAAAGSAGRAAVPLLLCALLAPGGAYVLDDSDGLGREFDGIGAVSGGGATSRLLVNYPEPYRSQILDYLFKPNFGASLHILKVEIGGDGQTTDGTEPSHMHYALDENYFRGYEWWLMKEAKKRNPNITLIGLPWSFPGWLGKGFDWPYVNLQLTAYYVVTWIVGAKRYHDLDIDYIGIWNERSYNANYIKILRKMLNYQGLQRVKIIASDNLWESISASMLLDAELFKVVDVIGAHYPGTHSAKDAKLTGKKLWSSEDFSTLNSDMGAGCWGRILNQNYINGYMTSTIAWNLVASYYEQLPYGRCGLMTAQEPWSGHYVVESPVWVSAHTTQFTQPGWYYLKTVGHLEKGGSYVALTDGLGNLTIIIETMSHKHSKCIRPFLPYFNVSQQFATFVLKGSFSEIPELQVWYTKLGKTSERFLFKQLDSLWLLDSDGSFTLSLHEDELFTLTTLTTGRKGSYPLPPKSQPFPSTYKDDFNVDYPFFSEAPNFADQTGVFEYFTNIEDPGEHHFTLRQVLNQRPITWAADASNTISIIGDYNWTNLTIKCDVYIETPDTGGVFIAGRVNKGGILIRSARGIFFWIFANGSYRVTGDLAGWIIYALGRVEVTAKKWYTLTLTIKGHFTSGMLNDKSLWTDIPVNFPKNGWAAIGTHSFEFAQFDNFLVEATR
Summary of the method: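 qHTS, 1536-well; 145M-Twi-hGALC-G270D cells (WT line also made) in DMEM/F12 + 10% FBS; compound incubation on live cells; HMU-β-gal 0.1 mM final, pH 5.2, NaTC; carbonate stop; fluorescence increase = enhanced residual activity.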

activation, inactive:
Cc1cc(Br)ccc1NC(=O)C1CCN(S(=O)(=O)c2ccc(Br)s2)CC1 -6.93%
COc1ccc(/C=C(/C#N)c2nc(-c3ccc(Br)cc3)cs2)cc1 13.8%
CCOC(=O)c1ccc(N2C(=O)c3n[nH]c(-c4cccs4)c3C2c2ccc(Cl)cc2Cl)cc1 (stereo not given) -16.9%
CCC(=O)N1CCc2cc(S(=O)(=O)CCC(=O)NCc3cccc(OC)c3)ccc21 -7.06%
Cc1cccc(Cn2c(SCc3ccc(C(=O)NC4CCCCC4)cc3)nc3ccncc32)c1 -4.13%
COc1ccc(NC(=O)c2c(C)oc3ccc(O)c(CN4CCN(Cc5ccccc5)CC4)c23)cc1 -13.5%
Cc1ccc(OC(=O)CSc2nnc(CNC(=O)c3ccccc3)o2)cc1 -19.3%
CC(=O)N1CCCc2cc(S(=O)(=O)N3CCCC(C(=O)N4CCN(c5cc(C)ccc5C)CC4)C3)ccc21 (stereo not given) 4.42%
CCc1ccc(C2=NN(CCC(=O)NCCc3ccc(Cl)cc3)C(=O)CC2)cc1 -18.2%
Cc1ccc(C(=O)COC(=O)CCC(=O)Nc2ccc(Oc3cc(C)ccc3C(C)C)cc2)cc1 -7.19%
Cc1ccc2c(c1)-c1c(cnn1CC(=O)Nc1ccccc1C#N)CO2 -5.88%
Cc1c(C(=O)NCCN(C)C)sc2nc3n(c(=O)c12)CCC3 -12.8%
CCOC(=O)c1nnc2c(-c3ccc(Cl)cc3)c(C)nn2c1C 1.32%
C[C@@H]1C[C@H]2[C@@H]3C[C@H](F)C4=CC(=O)C(Cl)=C[C@]4(C)[C@@]3(F)[C@@H](O)C[C@]2(C)[C@@]1(O)C(=O)CO -10.2%
O=C(NCC(c1ccccc1)c1ccccc1)c1nn(-c2ccccc2F)nc1CO -9.49%
CCCn1c2ccccc2c2cnn(CC(=O)NC(CCSC)C(=O)OC)c(=O)c21 (stereo not given) -10.5%
Cc1ccc(CCNC(=O)CCSCc2ccccc2Cl)cc1 6.7%
CCCN(CCC)C(=O)c1cc2c(=O)n3cccc(C)c3nc2n1C -2.16%
Cc1ccc(NC(=O)c2nc(S(C)(=O)=O)ncc2N(Cc2ccco2)Cc2ccco2)cc1C -25.8%
CN(Cc1ccco1)S(=O)(=O)c1nnc(NC(=O)c2cccc(Cl)c2)s1 -28.1%
CC(C)C(NS(=O)(=O)c1ccc2c(c1)oc(=O)n2C)C(=O)NCCc1ccc(Cl)cc1 (stereo not given) -12.9%
CCOc1ccc(Nc2c(S(=O)(=O)c3ccccc3)cnc3ccccc23)cc1 -11.4%
Cc1ccc(NC(=O)Cn2c(=O)oc3cc(S(=O)(=O)N4CCCCCC4)ccc32)cc1Cl -13.3%
Cc1ccc2cccc(NC(=O)c3ccc(-c4cccc(Cl)c4)o3)c2n1 -23%
COCCNC(=O)CSc1nc(-c2ccccc2C)nc2c1c(=O)n(C)c(=O)n2C -6.14%
COc1ccc(CCC(=O)NCCc2csc(-c3ccc(Cl)cc3)n2)cc1 -14.3%
NS(=O)(=O)c1ccc2nc(NC(=O)COc3ccccc3)sc2c1 -4.69%
Cc1ccc(-c2nnc(Nc3ccc(S(N)(=O)=O)cc3)c3ccccc23)cc1S(=O)(=O)N1CCCCC1 -13.7%
CN(C)c1ccc(C(CNC(=O)c2c(F)cccc2Cl)N2CCOCC2)cc1 (stereo not given) -9.65%
CC(C)(Oc1ccc(Cl)cc1)C(=O)Nc1nc2ccc(S(C)(=O)=O)cc2s1 -13%
CCOCCCNC(=O)C(c1ccc(Cl)cc1)N(Cc1cccs1)C(=O)c1ccc(NC(C)=O)cc1 (stereo not given) 0.0856%
Cc1ccc(NC(=O)CN2C(=O)C3(SCC(=O)N3c3ccc(F)c(F)c3)c3ccccc32)c(C)c1 (stereo not given) -21.4%
CCC(=O)N1CCc2cc(Br)cc(S(=O)(=O)CCC(=O)N(CC)Cc3ccccc3)c21 -7.25%
CCOc1ccc(OCC)c(NS(=O)(=O)c2cc(-c3onc(C)c3C)ccc2OC)c1 -8.83%
CN1C(=O)C2(SCC(=O)N2c2ccc(F)cc2)c2ccccc21 (stereo not given) -22.7%
COc1cc(OC)cc(C(=O)Nc2ccc3oc(-c4cccc5c(Br)cccc45)nc3c2)c1 -4.87%
CC(=O)N1CCc2cc(CNS(=O)(=O)c3ccc(Cl)s3)ccc21 -9.12%
COc1ccc(-n2c(=O)c3c4c(sc3n3c(SCCC(C)C)nnc23)COC(C(C)C)C4)cc1 (stereo not given) -18.1%
COc1ccc(Cl)cc1NC(=O)NCC1CCN(Cc2ccccc2F)CC1 -6.42%
COc1ccc(N2CCN(C(=O)c3cc(S(=O)(=O)N4CCC(C)CC4)cn3C)CC2)cc1 0.54%
CCN1CCN(CCCNC(=O)c2ccc3nc(Cc4ccccc4)oc3c2)CC1 -12.9%
O=C(c1ccc(F)cc1)n1nc(-c2ccccc2)nc1NCc1ccco1 -15.4%
O=C(NC1CCCCC1)c1ccc2c(c1)N(Cc1ccc(Cl)cc1)C(=O)c1ccccc1S2=O (stereo not given) -8.4%
CCn1cc(C(=O)NCCc2ccc(Cl)cc2)c(=O)c2cc(S(=O)(=O)N3CCC(C)CC3)ccc21 -13.1%
CCOc1ccccc1N(CC)C(=O)c1noc2c1COc1ccc(C)cc1-2 -7.89%
COc1ccc(N(CC(=O)N2CCN(c3ccccc3F)CC2)S(=O)(=O)c2c(C)n[nH]c2C)cc1 0.488%
Cc1cccc(NC(=O)CCNS(=O)(=O)c2cccc3nsnc23)c1C 2.08%
CCN(C(=O)C1CCN(c2ncnc3c2nc2n3CCCCC2)CC1)c1cccc(Cl)c1 -7.92%
COc1ccc(-n2ccnc(NCc3ccc(C)cc3)c2=O)cc1OC -10.4%
O=C(NCC(c1ccc2c(c1)OCO2)N1CCOCC1)c1c(F)cccc1F (stereo not given) -13.2%
Cc1cccc(N2CCN(c3nc4ccc(C)cc4n4cnnc34)CC2C)c1 (stereo not given) -15%
CCn1c(C)c(C)c2cc(C(=O)NCc3cccc(C)c3)ccc21 -5.7%
Cc1cccc(C(=O)Nc2ccc(C(=O)OCc3cc(=O)n4nc(CC(C)C)sc4n3)cc2)c1 -21.9%
O=C(c1ccccc1)N(Cc1ccco1)Cc1cccs1 -16%
COc1ccc(NC(=O)/C=C\C(=O)N(c2ccc(C(C)C)cc2)C(C(=O)NCc2ccco2)c2ccc(F)cc2)cc1 (stereo not given) -8.78%
Cc1ccc(C)c(Cn2c(=O)cc(C)c3c(C)nn(C)c32)c1 -6.97%
COc1ccccc1NC(=O)c1sc2nc(C)c(C(=O)Nc3ccc(C)cc3C)c(-c3ccc(C)o3)c2c1N -13.4%
Cc1ccc(-n2ncc3c(N4CCN(C)CC4)ncnc32)cc1C -17.1%
COc1cccc(CNC(=O)CCc2c(C)c3cc4c(C)coc4c(C)c3oc2=O)c1 -13.4%
CCc1ccccc1NC(=O)CCS(=O)(=O)c1cccc2nonc12 -11.6%
COc1ccc(OCC(=O)N2CCN(C(=O)c3cccc(OC)c3)CC2)cc1 -6.39%
O=C(CSc1nc(-c2ccc(F)cc2)cc(C(F)(F)F)n1)NCCc1ccccc1 -1.6%
COc1ccc(OC)c(C2NC(=O)NC(C)=C2C(=O)Nc2ccc(F)cc2)c1 (stereo not given) -4.85%
O=C(CSc1cn(CC(=O)N2CCCCC2)c2ccccc12)Nc1ccc(C(F)(F)F)cc1 -10.7%
COc1cccc(N2CCN(S(=O)(=O)c3ccc(-c4ccno4)cc3OC)CC2)c1 -7.69%
Cc1ccc(NC(=O)CSc2nc(-c3ccccc3Cl)nc3cc(=O)[nH]n23)c(C)c1 -29.1%
Cc1ccc(C(c2sc3nc(-c4ccco4)nn3c2O)N2CCC3(CC2)OCCO3)cc1 (stereo not given) -3.94%
COC(=O)c1c(C)nn(-c2ccc(F)cc2)c1-n1cccc1 -11.8%
CCc1cccc(Nc2ncnc3onc(-c4ccc(F)cc4)c23)c1 -18.7%
Cc1ccc(C(=O)NCc2ccc(F)cc2)cc1NC(=O)c1nsc2ccccc12 -15.6%
CCN(CC)CCNC(=O)c1sc2ncccc2c1-n1cccc1 -19%
COc1cccc(N2CCN(C(=O)c3ccc(NC(=O)c4nsc5ccccc45)cc3)CC2)c1 -9.12%
O=C(NCC(O)CO)c1c(I)c(C(=O)NCC(O)CO)c(I)c(N(CCO)C(=O)CO)c1I (stereo not given) -20.8%
COc1ccc(NC(=O)c2ccco2)cc1NC(=O)COc1ccc(Cl)cc1C -1.42%
O=C(Nc1ccc2nc(SCC(=O)N3CCc4ccccc43)sc2c1)c1ccccc1F -12.5%
COc1ccc(CNC(=O)CCc2nc(-c3ccc(C)cc3)no2)c(OC)c1 -35.6%
CC1=C(c2ccc(C)c(C)c2)S(=O)(=O)N=C1N1CCC(C(=O)NC(C)Cc2ccco2)CC1 (stereo not given) -13.5%
Cc1cc(C)cc(-n2c(SCC(=O)Nc3ccc4c(c3)OCCO4)nc3c([nH]c4ccccc43)c2=O)c1 -12.1%
Cn1cc(S(=O)(=O)c2ccccc2)c(=O)c2cc(F)c(N3CCCCCC3)cc21 0.795%
Cc1ccc(NC(=O)c2ccc(NC(=O)N3CCSc4ncccc43)cc2)c(C)c1 -3.39%
COc1ccc(C)cc1-n1cnc2cc(C(=O)NC3CCCC3)ccc21 -16.4%
COc1cc(C(=O)Nc2nonc2-c2ccc(C)c(C)c2)cc(OC)c1OC -16.6%
CCOC(=O)c1c(C)oc2nc(C)nc(NCc3ccccc3OC)c12 -17.6%
COC(=O)C(c1ccccc1Cl)N1CCc2sccc2C1 (stereo not given) -16.9%
COc1ccccc1NC(=O)Cn1c(=O)n(CCCCCC(=O)NCc2ccccc2)c(=O)c2sccc21 -18.5%
Cc1ccccc1Nc1c(-c2cccs2)nc2cccc(C)n12 -7.89%
O=C(NCC1CN(c2ccc(N3CCOCC3=O)cc2)C(=O)O1)c1ccc(Cl)s1 (stereo not given) -11.9%
Cc1cc(C(=O)Nc2c(C)nc3ccccn3c2=O)ccc1[N+](=O)[O-] -13.7%
CCOc1ccc(/C=C/c2nc(C#N)c(NCCc3ccccc3)o2)cc1 3.81%
O=C(CSc1nc2c([nH]c3ccccc32)c(=O)n1-c1ccc(Cl)cc1)NCC1CCCO1 (stereo not given) 2.37%
Cc1ccc(-n2c(SCC(N)=O)nc3c(oc4ccccc43)c2=O)cc1C -11.3%
CCOc1cc(CNC(=O)Cn2c(-c3cccs3)cc3cc(F)ccc32)ccc1OC -5.66%
O=C(Cn1c(=O)oc2cc(S(=O)(=O)NCc3ccccc3)ccc21)NCc1ccc(Cl)cc1 -5.21%
COc1cccc(C(=O)Nc2ccccc2-c2nnc(-c3cccc(OC)c3)o2)c1 -20.1%
CC(=O)Nc1ccc(S(=O)(=O)NC2(C(F)(F)F)NC(=O)N(CCc3ccc(F)cc3)C2=O)cc1 (stereo not given) -20.5%
